In the supplement of paper PMC11417369:
The other results are listed elsewhere or left out.

tested on: PfSIP2 AP2 domain 1 (GST-tagged); assay: gcPBM binding intensity (ln(normalized median fluorescence intensity)); higher = stronger DNA binding
How it was run: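 The binding buffer was 1× PBS containing 1% milk, 0.2 mg/ml BSA, 0.5% salmon testes DNA and 0.03% Triton X-100. In it, GST-tagged P. falciparum DNA-binding domains expressed in E. coli were applied for 1 h to an Agilent 4 × 180k array of primer-extended double-stranded 36-bp intergenic genomic probes plus negative controls. Binding intensity, read with Alexa488 anti-GST antibody and a 488 nm scan, is the highest Masliner-normalised natural-log median intensity across replicate spots of either probe orientation.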

| Sequence | gcPBM binding intensity (ln) |
| --- | --- |
| TATATTTAGAATACAATCTTAAAGTTGAAATAAAAT [CACACA_negctrl_site1292] | 6.84 |
| TTGTTAAATATTTATAAAATGAATTTAAAATGTACT [CACACA_negctrl_site665] | 7.05 |
| AAAAAAAAAACATACACACACACAAATATTTATATA [CACACA_site437] | 6.94 |
| TTTATTATCTTATTCACACACATATATAAATATGTA [CACACA_site7369] | 7.15 |
| AACATAATAAAAAAACGTACATAATTTTATATACAT [XGTACX_site6602] | 6.99 |
| ATATATCCAATATATATATATATATATATATATATA [CACACA_negctrl_site160] | 9.52 |
| ATAATATAGAAACACACACACATATATATATACATT [CACACA_site555] | 6.97 |
| TAGTTTTTATATAGCACACATATTGTGATTATGTAT [CACACA_site1196] | 6.98 |
| TTTATATATAAATATATATATATATATATATATATA [TGCATGCA_negctrl_site121] | 9.22 |
| AAATTATGTGCCAATACACACACACCGATATATATA [CACACA_site8050] | 7.44 |
| TTCTTAGATTGTACAGTACACACCTTTAGAATGTTA [CACACA_site212] | 7.06 |
| AATTCATTTTACCCATGTACACAATTATATTTTATA [XGTACX_site4127] | 7.23 |
| TACTACCACGGACATGCATGCACATTATTACTCTAA [TGCATGCA_site313] | 7.3 |
| AAGAAAAAATGATGAATAGAGATCAAATCTATATAT [TGCATGCA_negctrl_site29] | 6.72 |
| TTTTGTTACTTTTATGTGCACTTATAAAACGAACTA [GTGCAC_site9551] | 10.3 |
| GACTTTTCAATTTTTCGTACGTATAAATTGTATACA [XGTACX_site1488] | 7.24 |
| TTTTTATTGTTGTACTTATATTATTTTATTATTAAA [GTGCAC_negctrl_site200] | 7.31 |
| CTAATATATATCAATTGTACATATTGAATAAGAACA [XGTACX_site4541] | 7.03 |
| TTTTGAAGTAACAAATAAATAAATAAATATATAAAA [GTGCAC_negctrl_site517] | 6.92 |

| Sequence | gcPBM binding intensity (ln) |
| --- | --- |
| ATTCATTCATATGTTACACACACACCGACACATAAA [CACACA_site5749] | 7.45 |
| TATTAAACTGGACACACACACACACCCATATATAAA [CACACA_site4579] | 7.47 |
| AAAATAATCACATATTGTACAAAAAAATTTATTAAA [XGTACX_site3239] | 6.83 |
| TATATTAATATGAAAAGTACACATTCTATATATATA [XGTACX_site929] | 8.05 |
| ACATAATTTGATAATACACACAAATAATCTAAAATT [CACACA_site129] | 7.02 |
| AAAAAAAAAAAAAAATGTACCCATATATAAATATAT [XGTACX_site4061] | 7.25 |
| AAAAAATGGATGATCACACACTTCATAAAAATTGCA [CACACA_site5256] | 6.61 |
| TTTAATTATAAAACGTGTACATAATTATAATTACAT [XGTACX_site2206] | 7.07 |
| ATCATTTGCTCACGCACACACACATAAAAAGAAAAA [CACACA_site4349] | 7.51 |
| ATTATGTACAAAATGGTGCAATATTATACATATATA [GTGCAC_site9468] | 10.4 |
| AAAAATAGTATAAGTAGTACAACTGAAAAGTTATGT [XGTACX_site7488] | 6.92 |
| ACTACATTATGTCATACATGCATACATACGTGGTTT [TGCATGCA_site732] | 7.15 |
| AGTAATTTAAGGAATACACACAAGAAAAAAATAAGA [CACACA_site6177] | 7.27 |
| CATTAAAAGTATAATTGTACTTTTCATTTATATATT [XGTACX_site7536] | 6.92 |
| TTCTCAAAATTAAAATAACAGATTAACGAACTAACG [CACACA_negctrl_site1720] | 6.92 |
| TAATATATATATATATGTACATATATATTATGTATA [XGTACX_site4690] | 7.19 |
| AGATTATTTAGAATGTGTACATATTACACATACATG [XGTACX_site8634] | 7.3 |
| CATACATACAAACACACACACACACCCATATATATA [CACACA_site2918] | 7.62 |
| GTATACCTTTTGACATGTACGTATGTATATTTGGGT [XGTACX_site720] | 7.28 |

| Sequence | gcPBM binding intensity (ln) |
| --- | --- |
| TTTTTAACCAAACATCAAAACATATTTTTTTGTTAT [CACACA_negctrl_site385] | 6.87 |
| ATTATAATGTTAATGTGTACATATGATTCCTTAATT [XGTACX_site181] | 7.27 |
| TATGTTTTTACATATTGTACATATTCTTGTAATACG [XGTACX_site1179] | 7.19 |
| TATGTGTGCAAAAACTGTACACATTAAAGGTATATA [XGTACX_site7627] | 7.54 |
| TACTTTCAAAAGATCACACATATATATATATATATA [CACACA_site5630] | 9.6 |
| TAATAACATACAGACACACACGTAAAAGCACGTGTA [CACACA_site4299] | 6.87 |
| ATAAATAAATAAGTACATATATATATGTATATATAT [TGCATGCA_negctrl_site223] | 7.92 |
| ATGACATGTTCTAAATGTACATTTTTTAACCCTTTT [XGTACX_site1858] | 6.79 |
| TATGGTTACATTATATGTACTAAACGAATATTTTTA [XGTACX_site5694] | 6.85 |
| TATACAAGTATATAGGTGCATATATAAGTATATATT [GTGCAC_site9994] | 10.3 |
| CATAGATACATACACGCACACACATATATATATATA [CACACA_site13] | 9.23 |
| GTATTACCTTATTATTGTACTTTCATGATATATATG [XGTACX_site5382] | 7.19 |
| TTAATGAATGGACACACACACATATATATATATATT [CACACA_site5294] | 7.5 |
| TACACAAGAAAATTCACACACACACCCATATATATA [CACACA_site3879] | 7.53 |
| AACATACATGTATATAGTACATATTACATCTGATAC [XGTACX_site3649] | 6.98 |
| CATATAAAAGGACACACACACACATATAAATATGTA [CACACA_site6568] | 7.24 |
| TGCTATTTTATTTATTCTTTTATAAAAGTATAATAT [XGTACX_negctrl_site358] | 7.14 |
| ATTTTTATAGAATGAACACACATATTATAGCATTTA [CACACA_site6842] | 6.88 |
